From the supplement of paper PMC4967469 come the findings set out here.

Lines with a small IC50 respond at low doses; a fit beyond the top or the lowest dose is shown as a bound at that dose. AUC sums up the same curve from the lowest dose to the 256-fold higher top dose; the more sensitive the line, the further below 1. The top dose, if marked as inferred, comes from the curve model; the source does not state it. Where an entry number is given, a second screen of the drug exists; the two often differ.

Compound in the first experiment: NC(=O)[C@@H](CCC(F)(F)F)N(Cc1ccc(-c2ncon2)cc1F)S(=O)(=O)c1ccc(Cl)cc1 [BMS-708163]
Briefly: Viability of human cancer cell lines after 72 h of drug (GDSC screen). As to conditions: screen: GDSC drug entry 205; top dose inferred. On the procedure:
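Human cancer cell lines in 384-well plates, medium with 10% serum, drug for 72 h over a 256-fold dose range (nine 2-fold or five 4-fold steps up to the top dose). Adherent lines were fixed and stained with the nucleic acid dye Syto60, suspension lines read with resazurin; signal relative to control wells, capped at 0 and 100%. One two-parameter sigmoid per drug and line, fitted in a mixed model over all curves with the slope shared within a line.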
For “SK-PN-DW (Ewing sarcoma, adherent, top dose 10.24 µM)”, the AUC amounted to 0.986 and the half-maximal inhibitory concentration (IC50) was over 10.2 µM.

With “SK-UT-1 (soft tissue, adherent, top dose 10.24 µM)”, the AUC was 0.989 and the IC50 was over 10.2 µM.

With “SKG-IIIa (cervix, adherent, top dose 10.24 µM)”, the AUC was 0.982 and the 50% inhibitory concentration (IC50) is over 10.2 µM.

For “SKN (uterus, adherent, top dose 10.24 µM)”, the AUC stood at 0.971 and the half-maximal inhibitory concentration (IC50) is over 10.2 µM.

Turning to “SKN-3 (head and neck, adherent, top dose 10.24 µM)”, the AUC came to 0.983 and the concentration for half-maximal inhibition (IC50) is over 10.2 µM.

With “SLVL (B-cell lymphoma, suspension, top dose 10.24 µM)”, the AUC amounted to 0.974 and the IC50 was over 10.2 µM.

Consider “SN12C (kidney, adherent, top dose 10.24 µM)”, for which the AUC was 0.984 and the IC50 was over 10.2 µM.

For “SNB75 (glioma, adherent, top dose 10.24 µM)”, the AUC worked out at 0.976 and the IC50 was over 10.2 µM.

Regarding “SNG-M (endometrium, adherent, top dose 10.24 µM)”, the AUC was 0.972 and the half-maximal inhibitory concentration (IC50) was over 10.2 µM.

For the cell line “SNU-61 (large intestine, adherent, top dose 10.24 µM)”, the AUC stood at 0.977 and the IC50 is over 10.2 µM.

Take “SNU-81 (large intestine, adherent, top dose 10.24 µM)”: the AUC worked out at 0.981 and the IC50 was over 10.2 µM.

Consider “SNU-175 (large intestine, suspension, top dose 10.24 µM)”, for which the AUC amounted to 0.984 and the half-inhibitory concentration (IC50) is over 10.2 µM.

Consider “SNU-182 (liver, adherent, top dose 10.24 µM)”, for which the AUC was 0.986 and the IC50 is over 10.2 µM.

For “SNU-387 (liver, adherent, top dose 10.24 µM)”, the AUC worked out at 0.984 and the IC50 is over 10.2 µM.

Consider “SNU-398 (liver, adherent, top dose 10.24 µM)”, for which the AUC was 0.985 and the IC50 is over 10.2 µM.

For the cell line “SNU-407 (large intestine, adherent, top dose 10.24 µM)”, the AUC came out at 0.98 and the half-maximal inhibitory concentration (IC50) is over 10.2 µM.

Take “SNU-423 (liver, adherent, top dose 10.24 µM)”: the AUC stood at 0.978 and the 50% inhibitory concentration (IC50) was over 10.2 µM.

For the cell line “SNU-449 (liver, adherent, top dose 10.24 µM)”, the AUC came out at 0.962 and the IC50 is over 10.2 µM.

In the case of “SNU-475 (liver, adherent, top dose 10.24 µM)”, the AUC stood at 0.991 and the half-inhibitory concentration (IC50) was over 10.2 µM.

“SNU-1040 (large intestine, adherent, top dose 10.24 µM)”: the AUC was 0.971 and the concentration for half-maximal inhibition (IC50) is over 10.2 µM.

On to “SNU-C1 (large intestine, suspension, top dose 2.56 µM)”, for which the AUC amounted to 0.98 and the 50% inhibitory concentration (IC50) was over 2.56 µM.

Regarding “SNU-C2B (large intestine, adherent, top dose 2.56 µM)”, the AUC was 0.978 and the IC50 is over 2.56 µM.

Regarding “SNU-C5 (large intestine, adherent, top dose 10.24 µM)”, the AUC came to 0.985 and the IC50 was over 10.2 µM.

For “SR (lymphoid neoplasm, suspension, top dose 10.24 µM)”, the AUC was determined as 0.979 and the concentration for half-maximal inhibition (IC50) is over 10.2 µM.

As to “ST486 (Burkitt lymphoma, suspension, top dose 10.24 µM)”, the AUC came out at 0.988 and the IC50 was over 10.2 µM.

As to “SU8686 (pancreas, adherent, top dose 10.24 µM)”, the AUC is 0.985 and the IC50 is over 10.2 µM.

Turning to “SU-DHL-1 (anaplastic large cell lymphoma, suspension, top dose 10.24 µM)”, the AUC was determined as 0.997 and the IC50 was over 10.2 µM.

“SU-DHL-4 (B-cell lymphoma, suspension, top dose 10.24 µM)”: the AUC turned out to be 0.997 and the IC50 is over 10.2 µM.

As for “SU-DHL-5 (B-cell lymphoma, suspension, top dose 10.24 µM)”, the AUC worked out at 0.989 and the IC50 was over 10.2 µM.

As for “SU-DHL-6 (B-cell lymphoma, suspension, top dose 10.24 µM)”, the AUC stood at 0.973 and the half-maximal inhibitory concentration (IC50) is over 10.2 µM.

On to “SU-DHL-8 (B-cell lymphoma, suspension, top dose 10.24 µM)”, for which the AUC is 0.979 and the 50% inhibitory concentration (IC50) is over 10.2 µM.

For the cell line “SU-DHL-10 (B-cell lymphoma, suspension, top dose 10.24 µM)”, the AUC was determined as 0.998 and the 50% inhibitory concentration (IC50) was over 10.2 µM.

“SU-DHL-16 (B-cell lymphoma, suspension, top dose 10.24 µM)”: the AUC worked out at 0.972 and the 50% inhibitory concentration (IC50) is over 10.2 µM.

For the cell line “SUIT-2 (pancreas, adherent, top dose 10.24 µM)”, the AUC is 0.986 and the IC50 is over 10.2 µM.

“SUP-B15 (lymphoblastic leukaemia, suspension, top dose 10.24 µM)”: the AUC amounted to 0.978 and the concentration for half-maximal inhibition (IC50) was over 10.2 µM.

Turning to “SUP-HD1 (Hodgkin lymphoma, suspension, top dose 10.24 µM)”, the AUC came to 0.982 and the IC50 was over 10.2 µM.

Turning to “SUP-M2 (anaplastic large cell lymphoma, suspension, top dose 10.24 µM)”, the AUC stood at 0.989 and the 50% inhibitory concentration (IC50) is over 10.2 µM.

Regarding “SUP-T1 (T-cell lymphoblastic leukaemia, suspension, top dose 2.56 µM)”, the AUC stood at 0.988 and the half-inhibitory concentration (IC50) was over 2.56 µM.

In the case of “SW13 (adrenal gland, adherent, top dose 10.24 µM)”, the AUC is 0.988 and the IC50 was over 10.2 µM.

As to “SW48 (large intestine, adherent, top dose 2.56 µM)”, the AUC worked out at 0.987 and the IC50 was over 2.56 µM.

“SW156 (kidney, adherent, top dose 10.24 µM)”: the AUC came to 0.974 and the IC50 was over 10.2 µM.

For “SW620 (large intestine, adherent, top dose 2.56 µM)”, the AUC was 0.99 and the IC50 is over 2.56 µM.

For the cell line “SW626 (ovary, adherent, top dose 10.24 µM)”, the AUC was determined as 0.951 and the 50% inhibitory concentration (IC50) is over 10.2 µM.

On to “SW684 (fibrosarcoma, adherent, top dose 10.24 µM)”, for which the AUC is 0.982 and the IC50 was over 10.2 µM.

Regarding “SW756 (cervix, adherent, top dose 10.24 µM)”, the AUC was determined as 0.984 and the IC50 was over 10.2 µM.

For “SW780 (bladder, adherent, top dose 10.24 µM)”, the AUC was 0.986 and the IC50 is over 10.2 µM.

On to “SW837 (large intestine, adherent, top dose 10.24 µM)”, for which the AUC was found to be 0.981 and the IC50 is over 10.2 µM.

With “SW872 (soft tissue, adherent, top dose 10.24 µM)”, the AUC turned out to be 0.989 and the IC50 was over 10.2 µM.

Consider “SW900 (lung squamous cell carcinoma, adherent, top dose 10.24 µM)”, for which the AUC amounted to 0.98 and the IC50 was over 10.2 µM.

For the cell line “SW948 (large intestine, adherent, top dose 2.56 µM)”, the AUC came out at 0.981 and the half-maximal inhibitory concentration (IC50) was over 2.56 µM.

As for “SW954 (urogenital system, adherent, top dose 10.24 µM)”, the AUC was determined as 0.963 and the IC50 was over 10.2 µM.

As for “SW962 (urogenital system, adherent, top dose 10.24 µM)”, the AUC was 0.981 and the IC50 is over 10.2 µM.

For “SW982 (soft tissue, adherent, top dose 10.24 µM)”, the AUC was 0.972 and the 50% inhibitory concentration (IC50) was over 10.2 µM.

As for “SW1088 (glioma, adherent, top dose 10.24 µM)”, the AUC is 0.979 and the IC50 was over 10.2 µM.

With “SW1116 (large intestine, adherent, top dose 10.24 µM)”, the AUC worked out at 0.985 and the concentration for half-maximal inhibition (IC50) was over 10.2 µM.

Consider “SW1271 (small cell lung carcinoma, adherent, top dose 10.24 µM)”, for which the AUC came to 0.983 and the IC50 is over 10.2 µM.

For the cell line “SW1417 (large intestine, adherent, top dose 10.24 µM)”, the AUC was determined as 0.962 and the half-inhibitory concentration (IC50) is over 10.2 µM.

Staying with this experiment, now noted: top dose 5 µM; screen: GDSC drug entry 1072; top dose inferred.
For SNU-61 (large intestine, adherent), the AUC worked out at 0.985 and the concentration for half-maximal inhibition (IC50) is over 5 µM.

Turning to SNU-81 (large intestine, adherent), the AUC worked out at 0.973 and the 50% inhibitory concentration (IC50) is over 5 µM.

On to SNU-407 (large intestine, adherent), for which the AUC came to 0.934 and the IC50 is over 5 µM.

Turning to SNU-C5 (large intestine, adherent), the AUC amounted to 0.976 and the half-maximal inhibitory concentration (IC50) was over 5 µM.

Take SU-DHL-10 (B-cell lymphoma, suspension): the AUC is 0.997 and the half-maximal inhibitory concentration (IC50) was over 5 µM.

As for SUP-B8 (B-cell leukaemia, suspension), the AUC came to 0.983 and the half-maximal inhibitory concentration (IC50) was over 5 µM.

As to SW48 (large intestine, adherent), the AUC came to 0.931 and the IC50 is over 5 µM.

As for SW1116 (large intestine, adherent), the AUC was determined as 0.932 and the IC50 was over 5 µM.

What is called IC50 is the midpoint of a concentration-inhibition curve.
